# Data as given in the supplement of paper PMC8728848.
# This is one part of the list.
# B1: AAL (Agrocybe aegerita), Q6WY08 (protein)
# chain: MQGVNIYNISAGTSVDLAAPVTTGDIVTFFSSALNLNAGAGNPNNTTLNLFAENGAYLLHIAHRLQENVIIFNSRQPDGPWLVEQRVSDVANQFAGIDGKAMVTVFDHGDKYQVVINEKTVIQYTKQISGLTLSLSYNATEETSIFSTVVEAVTYTGLALEHHHHHH
# Legend:
# Test in all cases: glycan array binding signal (z-score within array); higher = stronger binding
# Settings in all cases: glycan notation: IUPAC condensed, linker removed; mutation: F63H
# [1] = target: Fuc(a1-2)Gal(b1-4)[Fuc(a1-3)]GlcNAc
# In short: (§1)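 The Consortium for Functional Glycomics database supplied 3228 glycan arrays, of which those lacking an available protein sequence were dropped. The binding signal, a within-array Z-score, was averaged across arrays of the same protein sequence and across linkers. Negative scores can be read as non-binding.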
# [2] = target: Fuc(a1-2)Gal(b1-4)[Fuc(a1-3)]GlcNAc(b1-2)Man(a1-3)[Fuc(a1-2)Gal(b1-4)[Fuc(a1-3)]GlcNAc(b1-2)Man(a1-6)]Man(b1-4)GlcNAc(b1-4)[Fuc(a1-6)]GlcNAc
# In short: as §1
# [3] = target: Fuc(a1-2)Gal(b1-4)[Fuc(a1-3)]GlcNAc(b1-2)[Fuc(a1-2)Gal(b1-4)[Fuc(a1-3)]GlcNAc(b1-4)]Man(a1-3)[Fuc(a1-2)Gal(b1-4)[Fuc(a1-3)]GlcNAc(b1-2)Man(a1-6)]Man(b1-4)GlcNAc(b1-4)GlcNAc
# In short: as §1
# [4] = target: Fuc(a1-2)Gal(b1-4)[Fuc(a1-3)]GlcNAc(b1-3)Gal(b1-4)[Fuc(a1-3)]GlcNAc
# In short: as §1
# [5] = target: Fuc(a1-2)Gal(b1-4)[Fuc(a1-3)]GlcNAc(b1-3)Gal(b1-4)[Fuc(a1-3)]GlcNAc(b1-3)Gal(b1-4)[Fuc(a1-3)]GlcNAc
# In short: as §1
# [6] = target: Fuc(a1-2)Gal(b1-4)[Fuc(a1-3)]GlcNAc(b1-3)GalNAc
# In short: as §1
# [7] = target: Fuc(a1-2)Gal(b1-4)[Fuc(a1-3)]GlcNAc(b1-3)[Neu5Ac(a2-6)Gal(b1-4)GlcNAc(b1-6)]Gal(b1-4)Glc
# In short: as §1
# [8] = target: Fuc(a1-2)Gal3S(b1-4)GlcNAc
# In short: as §1
# [9] = target: Fuc(a1-2)Gal6S(b1-3)GlcNAc
# In short: as §1
# [10] = target: Fuc(a1-2)Gal6S(b1-3)GlcNAc6S
# In short: as §1
# [11] = target: Fuc(a1-2)Gal6S(b1-4)Glc
# In short: as §1
# [12] = target: Fuc(a1-2)Gal6S(b1-4)Glc6S
# In short: as §1
# [13] = target: Fuc(a1-2)[Gal(a1-3)]Gal
# In short: as §1
# [14] = target: Fuc(a1-2)[Gal(a1-3)]Gal(b1-3)GalNAc
# In short: as §1
# [15] = target: Fuc(a1-2)[Gal(a1-3)]Gal(b1-3)GalNAc(b1-3)Gal(a1-4)Gal(b1-4)Glc
# In short: as §1
# [16] = target: Fuc(a1-2)[Gal(a1-3)]Gal(b1-3)GlcNAc
# In short: as §1
# [17] = target: Fuc(a1-2)[Gal(a1-3)]Gal(b1-3)GlcNAc(b1-2)Man(a1-3)[Fuc(a1-2)[Gal(a1-3)]Gal(b1-3)GlcNAc(b1-2)Man(a1-6)]Man(b1-4)GlcNAc(b1-4)GlcNAc
# In short: as §1
# [18] = target: Fuc(a1-2)[Gal(a1-3)]Gal(b1-3)GlcNAc(b1-2)Man(a1-3)[Fuc(a1-2)[Gal(a1-3)]Gal(b1-3)GlcNAc(b1-2)Man(a1-6)]Man(b1-4)GlcNAc(b1-4)[Fuc(a1-6)]GlcNAc
# In short: as §1
# [19] = target: Fuc(a1-2)[Gal(a1-3)]Gal(b1-3)GlcNAc(b1-3)GalNAc
# In short: as §1
# [20] = target: Fuc(a1-2)[Gal(a1-3)]Gal(b1-3)GlcNAc(b1-6)GalNAc
# In short: as §1
# [21] = target: Fuc(a1-2)[Gal(a1-3)]Gal(b1-4)Glc
# In short: as §1
# [22] = target: Fuc(a1-2)[Gal(a1-3)]Gal(b1-4)GlcNAc
# In short: as §1
# [23] = target: Fuc(a1-2)[Gal(a1-3)]Gal(b1-4)GlcNAc(b1-2)Man
# In short: as §1
# [24] = target: Fuc(a1-2)[Gal(a1-3)]Gal(b1-4)GlcNAc(b1-2)Man(a1-3)[Fuc(a1-2)[Gal(a1-3)]Gal(b1-4)GlcNAc(b1-2)Man(a1-6)]Man(b1-4)GlcNAc(b1-4)GlcNAc
# In short: as §1
# [25] = target: Fuc(a1-2)[Gal(a1-3)]Gal(b1-4)GlcNAc(b1-2)Man(a1-3)[Fuc(a1-2)[Gal(a1-3)]Gal(b1-4)GlcNAc(b1-2)Man(a1-6)]Man(b1-4)GlcNAc(b1-4)[Fuc(a1-6)]GlcNAc
# In short: as §1
# [26] = target: Fuc(a1-2)[Gal(a1-3)]Gal(b1-4)GlcNAc(b1-3)GalNAc
# In short: as §1
# [27] = target: Fuc(a1-2)[Gal(a1-3)]Gal(b1-4)GlcNAc(b1-3)[Fuc(a1-2)[Gal(a1-3)]Gal(b1-4)GlcNAc(b1-6)]GalNAc
# In short: as §1
# [28] = target: Fuc(a1-2)[Gal(a1-3)]Gal(b1-4)GlcNAc(b1-6)GalNAc
# In short: as §1
# [29] = target: Fuc(a1-2)[Gal(a1-3)]Gal(b1-4)[Fuc(a1-3)]Glc
# In short: as §1
# [30] = target: Fuc(a1-2)[Gal(a1-3)]Gal(b1-4)[Fuc(a1-3)]GlcNAc
# In short: as §1
# [31] = target: Fuc(a1-2)[Gal(a1-3)]Gal(b1-4)[Fuc(a1-3)]GlcNAc(b1-3)GalNAc
# In short: as §1
# [32] = target: Fuc(a1-2)[Gal(a1-4)]Gal(b1-4)GlcNAc
# In short: as §1
# [33] = target: Fuc(a1-2)[GalNAc(a1-3)]Gal
# In short: as §1
# [34] = target: Fuc(a1-2)[GalNAc(a1-3)]Gal(b1-3)GalNAc(a1-3)[Fuc(a1-2)]Gal(b1-4)GlcNAc
# In short: as §1
# [35] = target: Fuc(a1-2)[GalNAc(a1-3)]Gal(b1-3)GalNAc(b1-3)Gal(a1-4)Gal(b1-4)Glc
# In short: as §1
# [36] = target: Fuc(a1-2)[GalNAc(a1-3)]Gal(b1-3)GlcNAc
# In short: as §1
# [37] = target: Fuc(a1-2)[GalNAc(a1-3)]Gal(b1-3)GlcNAc(b1-2)Man(a1-3)[Fuc(a1-2)[GalNAc(a1-3)]Gal(b1-3)GlcNAc(b1-2)Man(a1-6)]Man(b1-4)GlcNAc(b1-4)GlcNAc
# In short: as §1
# [38] = target: Fuc(a1-2)[GalNAc(a1-3)]Gal(b1-3)GlcNAc(b1-2)Man(a1-3)[Fuc(a1-2)[GalNAc(a1-3)]Gal(b1-3)GlcNAc(b1-2)Man(a1-6)]Man(b1-4)GlcNAc(b1-4)[Fuc(a1-6)]GlcNAc
# In short: as §1
binder,measurement,setting,value
B1,glycan array binding signal (z-score),[1],0.043
same,glycan array binding signal (z-score),[2],-0.037
same,glycan array binding signal (z-score),[3],0.013
same,glycan array binding signal (z-score),[4],-0.162
same,glycan array binding signal (z-score),[5],-0.232
same,glycan array binding signal (z-score),[6],-0.447
same,glycan array binding signal (z-score),[7],-0.35
same,glycan array binding signal (z-score),[8],-0.545
same,glycan array binding signal (z-score),[9],-0.436
same,glycan array binding signal (z-score),[10],-0.047
same,glycan array binding signal (z-score),[11],0.107
same,glycan array binding signal (z-score),[12],-0.261
same,glycan array binding signal (z-score),[13],-0.165
same,glycan array binding signal (z-score),[14],0.343
same,glycan array binding signal (z-score),[15],-0.281
same,glycan array binding signal (z-score),[16],-0.214
same,glycan array binding signal (z-score),[17],-0.387
same,glycan array binding signal (z-score),[18],0.22
same,glycan array binding signal (z-score),[19],0.009
same,glycan array binding signal (z-score),[20],-0.089
same,glycan array binding signal (z-score),[21],-0.268
same,glycan array binding signal (z-score),[22],-0.031
same,glycan array binding signal (z-score),[23],-0.153
same,glycan array binding signal (z-score),[24],-0.014
same,glycan array binding signal (z-score),[25],-0.34
same,glycan array binding signal (z-score),[26],0.315
same,glycan array binding signal (z-score),[27],0.106
same,glycan array binding signal (z-score),[28],0.092
same,glycan array binding signal (z-score),[29],0.239
same,glycan array binding signal (z-score),[30],0.059
same,glycan array binding signal (z-score),[31],0.197
same,glycan array binding signal (z-score),[32],-0.525
same,glycan array binding signal (z-score),[33],0.079
same,glycan array binding signal (z-score),[34],-0.063
same,glycan array binding signal (z-score),[35],0.005
same,glycan array binding signal (z-score),[36],-0.281
same,glycan array binding signal (z-score),[37],-0.006
same,glycan array binding signal (z-score),[38],-0.159
